# Among all 45,000 compounds or so, about 200 (0.44%) were called active. Not shown: some 7% with an inconclusive outcome. Calls come from the whole dose curve; as a rule, active = well fitted activation curve with a large enough effect; inconclusive = small, poorly fitted or top-dose-only effect; inactive = no such curve, though single readings can be large or run the other way. Some of the results follow.
# Test: qHTS of TDP-43 Inhibitors: NCGC Sytravon Library Screen; note: 0% is about no effect; nearly all actives have a fitted effect of over 55% in size
# Details: yeast TDP-43 toxicity rescue, BacTiter-Glo growth, 24 h; series mostly up to 46.1 µM; growth rescue (activation): at the top concentration
# In short: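 TDP-43-expressing yeast, pregrown in raffinose, seeded at OD600 0.02 in galactose medium with compound for 24 hr at 30 deg C. Growth read by BacTiter-Glo luminescence, so rescue of toxicity appears as activation.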
row,SMILES,growth rescue (activation)
1,O=S(=O)(c1ccc(F)cc1)N1CCC2(CC1)OCCO2,inactive: 5.27%
2,CC(C)[C@H](NC(=O)OCc1ccccc1)C(=O)OCC(=O)N1CCCCC1,inactive: 10.4%
3,CC(C)(C)C1c2[nH]c3ccccc3c2CCN1CCCn1cccn1 (configuration not stated),inactive: 9.73%
4,Cn1c(N)c(Sc2ccccc2[N+](=O)[O-])c(=O)n(C)c1=O,inactive: -8.28%
5,CC1CCN(S(=O)(=O)c2ccc3c(c2)CCN3C(=O)Nc2ccc(Br)cc2F)CC1,inactive: -0.987%
6,COc1ccc(NC(=O)c2oc3ccccc3c2NC(=O)c2ccc(OC)c(OC)c2)c(OC)c1,inactive: 22%
7,O=C(/C=C/c1ccc(S(=O)(=O)N2CCOCC2)cc1)Nc1cc(F)ccc1F,inactive: 19.6%
8,O=C(CNC(=O)c1ccc(Cl)cc1)NNc1c(F)c(F)cc(F)c1F,inactive: -5%
9,O=C(CCC(=O)c1cccs1)OCC(=O)N1CCN(C(=O)c2ccco2)CC1,inactive: 12.8%
10,CC(C)CSC1=NSC2=NC(=O)/C(=C\c3coc4ccccc4c3=O)C(=N)N12,inactive: 21.7%
11,Cc1ccccc1C(=O)NCCNC(=O)c1ccco1,inactive: -5.83%
12,COc1ccc(-c2ccc(CCC(=O)O)n2NC(=O)c2ccc(C(C)(C)C)cc2)cc1,inactive: 6.63%
13,CC1(C(=O)NCc2cccc3ccccc23)CCN1C(=O)Cc1ccc(-c2ccccc2)cc1 (configuration not stated),inactive: 24.7%
14,Cc1cc(NC(=O)CN2C(=O)NC3(CCCCC3)C2=O)ccc1N1CCCC1,inactive: 2.08%
15,Cc1cccc(NC(=S)N2CCCCCC2)c1,inactive: 16.6%
16,O=C(O)c1cccc(S(=O)(=O)N2CCC(n3nnc4cc(C(F)(F)F)ccc43)CC2)c1,inactive: 2.14%
17,CSc1nsc(SC)c1NC(=O)N1CCCCC1,inactive: -7.45%
18,C(=N\N(c1ccccc1)c1ccccc1)/c1ccccn1,inactive: -9.22%
19,COc1ccc(CC(=O)Nc2sc3c(c2C(N)=O)CCCC3)cc1,inactive: 11.9%
20,CC1(C(=O)OCC(=O)NC(=O)NCc2ccccc2)CC1(Cl)Cl (configuration not stated),inactive: 18.8%
21,Cc1ccnc(Nc2nc(-c3ccc(O)c(O)c3)cs2)c1,inactive: 2.66%
22,COC(=O)c1cc(NC(=O)Cn2c(=O)oc3ccccc32)cc(C(=O)OC)c1,inactive: 0.137%

row,SMILES,growth rescue (activation)
1,COc1cc(/C=C/C(=O)OCC(=O)Nc2cc(S(=O)(=O)N3CCCC3)ccc2Cl)cc(OC)c1OC,inactive: 8.32%
2,O=C(O)C1C2CCC(O2)C1C(=O)Nc1ccc(OC(F)F)cc1 (configuration not stated),inactive: 1.95%
3,CCN1CCN(C(=O)c2c(-c3ccccc3)noc2C)CC1,inactive: -5.61%
4,O=C(NCC(c1ccco1)S(=O)(=O)c1cccs1)c1ccc(Cl)cc1 (configuration not stated),inactive: 26.7%
5,CCC(=O)N1CCCC1(C)C(=O)Nc1ccc2nc(C)ccc2c1 (configuration not stated),inactive: 3.1%
6,COCCN(C(=O)c1csnn1)C(C(=O)NC1CCCC1)c1ccccc1F (configuration not stated),inactive: 9.19%
7,CN(C)c1cccc2c(/C=N/O)ccc(N(C)C)c12,inactive: 0.413%
8,CC(=O)c1cccc(NC(=O)c2ccc(-c3c(C)noc3C)c3ccoc23)c1,inactive: 9.84%
9,NC(=O)NOCc1c(F)cccc1Cl,inactive: 6.26%
10,Cc1sc2nc(CSc3cccc(C(F)(F)F)c3)[nH]c(=O)c2c1C,inactive: 14.1%
11,COc1ccc(C(=O)NC(C)c2cnn(-c3ccccn3)c2C)o1 (configuration not stated),inactive: 15%
12,S=c1[nH]c2ccc3ccccc3c2[nH]1,inactive: -8.35%
13,COc1ccc(CCNC(=O)COc2cccc(-n3cnnn3)c2)cc1,inactive: 18.1%
14,CN1CCN(c2ccc(NC(=O)COc3ccc4ccccc4c3)cc2)CC1,inactive: 11%
15,CCCC(C)NC(=S)NC(=O)c1cc(S(=O)(=O)N2CCOCC2)ccc1C (configuration not stated),inactive: 7.35%
16,COc1cccc(C(=O)NC(=S)Nc2nnn(C)n2)c1,inactive: 5.76%
17,CCOC(=O)/C=C1\SCC(=O)N1CC(=O)N1CCOCC1,inactive: -5.21%
18,COc1ccc(-c2cnc3c(NC(C)=O)cc(-c4cccc(C(=O)N(C)C)c4)cn23)cc1OC,inactive: 2.51%
19,Cc1ccc(OCC(=O)NCCNC(=O)c2cnccn2)cc1C,inactive: 16.7%
20,Cc1ccc(-c2cc(C(=O)N/N=C/c3ccccc3O)n[nH]2)o1,inactive: -2.9%
21,Cc1ccc(S(=O)(=O)NCCn2cnc([N+](=O)[O-])n2)cc1,inactive: 8.95%
22,CC(=O)c1ccc(N2CCN(C(=S)Nc3cc(C)ccc3C)CC2)cc1,inactive: 29%

row,SMILES,growth rescue (activation)
1,Cc1oc2cc3oc(=O)c(CC(=O)NCCC(=O)O)c(C)c3cc2c1C,inactive: -10.5%
2,Cn1ccc(C(=O)N/N=C/c2c[nH]c3ccccc23)n1,inactive: -27.4%
3,COc1ccc2c(c1)cc(C(=O)N[C@@H](Cc1ccccc1)C(=O)N[C@@H](C)C(=O)O)n2C,inactive: -10.3%
4,COc1ccc(C=O)cc1OS(=O)(=O)c1ccccc1[N+](=O)[O-],inactive: 6.42%
5,COc1ccc(C(=O)NN2C(=O)C3C(c4ccccc4)C=CC(c4ccccc4)C3C2=O)cc1 (configuration not stated),inactive: 7.82%
6,O=C(CN1C(=O)/C(=C2\SC(=S)N(CCS(=O)(=O)O)C2=O)c2ccccc21)Nc1cccc(Br)c1,inactive: -16%
7,COc1cccc(/C=N/Nc2ccc([N+](=O)[O-])cn2)c1O,inactive: -39.6%
8,Cc1nnc(NC(=O)C(C)Sc2nnc(CCNC(=O)c3ccccc3F)n2C)s1 (configuration not stated),inactive: 9.07%
9,Cc1ccc2c(c1)C(c1ccccc1)N(C(=O)c1ccccc1[N+](=O)[O-])CC(=O)N2 (configuration not stated),inactive: 12.4%
10,CCCn1c(N)c(N(CCOC)C(=O)c2cccc(C(F)(F)F)c2)c(=O)[nH]c1=O,inactive: -13.9%
11,Cc1cc(C)c(OCCN2CC(C)OC(C)C2)c(Br)c1 (configuration not stated),inactive: -14.2%
12,Cc1ccc([N+](=O)[O-])c(OCc2ncc(Cl)n2C)c1,inactive: 25.9%
13,COc1ccc(C)cc1NC(=O)CCN1CC(C)OC(C)C1 (configuration not stated),inactive: 5.47%
14,COc1ccc(C(=O)Sc2nncc3ccccc23)cc1,inactive: -9.76%
15,COC(=O)c1cc(OC)c(OC)cc1NC(=O)CCNC(=O)c1ccco1,inactive: 5.8%
16,O=C(NN1C(=O)C2C(C1=O)C1C=CC2C12CC2)c1ccc(Cl)cc1 (configuration not stated),inactive: 4.59%
17,Cn1c(SCC(=O)Nc2ccccc2Cl)nnc1C1CC1,inactive: -18.2%
18,O=C(Nc1cc(F)ccc1F)C1CCN(S(=O)(=O)c2cccc3nonc23)CC1,inactive: 7.54%
19,CCC1CCc2c(sc(NC(=O)c3cccnc3)c2C(N)=O)C1 (configuration not stated),inactive: 11%
20,O=C(NS(=O)(=O)Oc1ccc(F)cc1F)OC[C@@H]1CCCN2CCCCC12 (some centres not stated),inactive: -0.773%
21,Cc1cc(=O)n(-c2ccc(Cl)cc2)c(=O)[nH]1,inactive: 12.6%
22,CCOC(=O)C1CCCN(c2c(NCCC(C)C)c(=O)c2=O)C1 (configuration not stated),inactive: -5.13%

row,SMILES,growth rescue (activation)
1,C=CCNC(=O)Nc1ccc2nc(C)sc2c1,inactive: -11.6%
2,CC(=O)C1=C(S(=O)(=O)c2ccc(C)cc2)CS(=O)(=O)C1,inactive: 19.8%
3,Cc1cnc(NC(=O)C2COc3ccccc3O2)s1 (configuration not stated),inactive: 17.8%
4,Cc1ccc(-c2cc(-c3ccccc3)no2)c(O)c1,inactive: 4.08%
5,O=C(OCc1ccccc1)/C(=C/c1cccc(Br)c1)NC(=O)c1ccco1,inactive: 35.9%
6,Cc1c(C(=O)O)sc2[nH]c(=O)n(Cc3ccccc3)c(=O)c12,inactive: -2.76%
7,O=C(N/N=C/c1cccc(O)c1)c1cc(C2CC2)nc2ccccc12,inactive: 0.21%
8,O=C(COC(=O)c1ccco1)Nc1cc(S(=O)(=O)N2CCOCC2)ccc1Cl,inactive: 4.99%
9,CC(=O)Nc1ccc(NS(=O)(=O)c2cccc3nonc23)cc1,inactive: 4.2%
10,CC(=O)c1ccc(NC(=O)c2cc(=O)[nH]c3ccccc23)cc1,inactive: -0.0598%
11,CCOc1ccc(N2C(=O)/C(=C/c3ccccc3OCC(=O)OC)N(CC(=O)OC)C2=S)cc1,inactive: 12.6%
12,COc1ccc(/C=C/c2cc(C(F)(F)F)[nH]c(=O)n2)cc1OC,inactive: 7.56%
13,Cc1ccc(NC(=S)N2CCC(NC(=O)C3CCCCC3)CC2)cc1C,inactive: -20.6%
14,O=C(Cc1ccc(Br)cc1)OCC(=O)c1ccc[nH]1,inactive: 15.1%
15,CCc1ccc(OC(C)C(=O)Nc2ccccc2C(=O)N2CCOCC2)cc1 (configuration not stated),inactive: -6.88%
16,NC(=O)N/N=C/c1c(O)ccc2oc3c(c12)CCCC3,inactive: 4.94%
17,Nc1nc2ccc(C(=O)NC3CCCCC3)cc2s1,inactive: -7.46%
18,O=C(N/N=C/c1ccccn1)c1cc(-c2ccc(Cl)s2)[nH]n1,inactive: -1.94%
19,O=C(COC(=O)c1ccc(F)cc1F)Nc1ncccn1,inactive: -6.09%
20,O=S(=O)(/C=C/c1ccccc1)N1CCNCC1,inactive: 1.76%
21,CC(=O)NC1C(=O)N=C(SCC(=O)Nc2sc3c(c2C#N)CCCCCC3)NC1=O (configuration not stated),inactive: -1.98%
22,O=C(COc1ccccc1-c1ccccc1)N/N=C/c1ccc2ccccc2c1,inactive: -8.41%

row,SMILES,growth rescue (activation)
1,Cn1c(=NC(=O)C2CCN(S(=O)(=O)c3cccs3)CC2)sc2ccccc21,inactive: 10.4%
2,O=[N+]([O-])c1ccc(COc2ccccc2/C=N/O)cc1,inactive: -1.14%
3,Cc1cc(NC(=O)C2CCCCC2)ccc1NC(=O)c1ccccc1Cl,inactive: 17.7%
4,O=C(O)CCCCCn1c(O)c(C=C2N=c3ccccc3=N2)sc1=S,inactive: 26.7%
5,COc1cc(Br)c(C(=O)c2nccc3cc(OC)c(OC)cc23)cc1OC,inactive: 22.3%
6,COc1cc(C2Nc3ccccc3NC3=C2C(=O)CC(c2ccc(OC)c(OC)c2)C3)ccc1O (configuration not stated),inactive: -11%
7,O=S(=O)(c1ccccc1)N1CN(Cc2ccc(F)cc2)c2nc3ccccc3nc21,inactive: 11.7%
8,O=c1[nH]cnc2sc3c(c12)CCC3,inactive: -12.9%
9,O=C(CCC(=O)N1CCCC1)Nc1ccc([N+](=O)[O-])cc1,inactive: 16.5%
10,COc1cccc(C(=O)Oc2ccc(N3C(=O)CCC3=O)c(C)c2)c1,inactive: 14.1%
11,O=[N+]([O-])c1cccc(-n2nncc2-c2ccccc2)c1,inactive: 17.7%
12,CSc1cccc(NC(=O)C2CCCN(S(=O)(=O)c3cccs3)C2)c1 (configuration not stated),inactive: 5.37%
13,O=C(O)c1ccc(/C=N/NC(=O)c2cc(-c3ccc4c5c(cccc35)CC4)n[nH]2)cc1,inactive: 7.96%
14,CC(C)Oc1cccc(NC(=O)C2(C)CCCN2C(=O)C(C)C)c1 (configuration not stated),inactive: -3.65%
15,Cc1c(-n2c(SCC(=O)NC(C)C(C)C)nc3ccccc3c2=O)c(=O)n(-c2ccccc2)n1C (configuration not stated),inactive: 10.3%
16,O=C(Nc1ccc(N2CCN(C(=O)c3ccccc3)CC2)cc1)c1cccs1,inactive: -19.1%
17,CN(CC(=O)Nc1ccccc1C(F)(F)F)C(=O)Cc1ccccc1F,inactive: -0.412%
18,OC[C@@H]1CN(Cc2ccc3c(c2)OCO3)C[C@H](n2cnc3c(NC4CCC4)ncnc32)O1,inactive: 11.9%
19,CCc1cc(C(=O)O)c(NC(=O)c2cc(OC)c(OC)c(OC)c2)s1,inactive: 3.91%

# Source: PubChem BioAssay AID1347073 (National Center for Advancing Translational Sciences (NCATS), 2019)
